The text below walks through data of the supplement of paper PMC11417369.

± gives the standard deviation of the averaged measurements. The list shows a part of the results.

This assay concerns PfAP2-LT AP2 domain (GST-tagged). The assay can be described thus: gcPBM binding intensity (ln(normalized median fluorescence intensity)); higher = stronger DNA binding. The procedure, abridged: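 For binding intensity, the highest Masliner-normalised natural-log median intensity across replicate spots of either probe orientation was taken. Protein bound to the array was stained with Alexa488 anti-GST antibody and scanned at 488 nm. The protein, GST-tagged P. falciparum DNA-binding domains from E. coli at about 25 μg on average, had been applied for 1 h to an Agilent 4 × 180k array of primer-extended double-stranded 36-bp intergenic genomic probes and negative controls.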
Take “CATATATATTTGTTCACACACACACTAATAAAAAAA [CACACA_site8787]”: the “gcPBM binding intensity (ln)” value came to 9.45 ± 0.34. The value for “TGGAGGAACCTCATATGTACGTATAAATATATATTT [XGTACX_site5603]” was 8.76 ± 0.34. Take “TTAAAGCACCCATGCACACACACAAAGGAAAAGAAA [CACACA_site233]”: the “gcPBM binding intensity (ln)” value was found to be 9.52 ± 0.3. As for “TTATATGTATGGAGGTTTTTGTATATAGATATATAG [CACACA_negctrl_site177]”, the figure is 8.65 ± 0.38; as for “CATCTTATATAATCATGTACATATAGAGACTTCTTT [XGTACX_site7685]”, 8.62 ± 0.4. As for “GGGGGAATTTACATGGGTACACATGTATTAAAAAAT [XGTACX_site4130]”, the figure is 9.03 ± 0.11; as for “TTTTTCTTACATGAGTGTACACACTTTTTTTCAGAA [XGTACX_site138]”, 8.78 ± 0.48. As for “ACTATTAAAATGAATACACACAAATATAAAAATATA [CACACA_site4145]”, the figure is 8.96 ± 0.5; as for “GGTAGGGATTATACCACACACACATACACATAAATA [CACACA_site3179]”, 9.62 ± 0.45; as for “ACGCTACATAAATACGTGCACATCTTTTTGTGTATA [GTGCAC_site9675]”, 9.07 ± 0.36. Consider “ATGTCATATAATAGTACACACATGAAAATATAAATA [CACACA_site3215]”, for which the “gcPBM binding intensity (ln)” value amounted to 9.18 ± 0.46. As for “ATAAAAAAAGGACACACACACATATATTTATTTATA [CACACA_site7438]”, the figure is 9.71 ± 0.19; as for “AAAAAAAAAAAAAATAGTACAATACCCAAATATAAC [XGTACX_site6684]”, 9 ± 0.47; as for “TTATTATAAATGTTTTGTACGTACATCCGAAAATAA [XGTACX_site2175]”, 8.49 ± 0.42. The value for “TATAATCATATTAAGGGTACATATGTGTAAATATTT [XGTACX_site6018]” was 8.77 ± 0.33; that for “ATAATAATAATATAACCAAGGAAATATAATATTTGT [XGTACX_negctrl_site485]” was 8.88 ± 0.36; that for “CTTTAAAACCGGTACTGTACACATAGTATTATTATC [XGTACX_site2602]” was 8.92 ± 0.37.

As for “CGATACTTTAGGTGTACACAAATATACATGAATGAG [CACACA_site5189]”, the “gcPBM binding intensity (ln)” value was found to be 8.97 ± 0.49. As to “AAAAAAAAGGAAATAACACACATGTATTTATTTATA [CACACA_site4966]”, the “gcPBM binding intensity (ln)” value turned out to be 8.79 ± 0.49. As for “AAATTTGCTTTTATTTTACACACTTGCTCCTGTTGT [CACACA_site8276]”, the figure is 9.53 ± 0.61. The value for “ATAATATTTTAATGCACACACACAAAAAAAAAAAAA [CACACA_site2891]” was 9.13 ± 0.32; that for “AAACAATCTAAAAGTAGTACAATAAAAATATATATA [XGTACX_site5607]” was 8.81 ± 0.57. As for “GAACCATAAGGAACGACACACAAAGATAAATAAATA [CACACA_site3472]”, the figure is 9.1 ± 0.69; as for “AAAAAAAAATTATTCACACATATATATATATATATA [CACACA_site5579]”, 9.54 ± 0.18.
